# Source: the supplement of paper PMC8728848
# The list shows a part of the results.
# B1: CGL (Crenomytilus grayanus), H2FH31 (protein)
# chain: MTTFLIKHKASGKFLHPYGGSSNPANNTKLVLHSDIHERMYFQFDVVDERWGYIKHVASGKIVHPYGGQANPPNETNMVLHQDRHDRALFAMDFFNDNIMHKGGKYIHPKGGSPNPPNNTETVIHGDKHAAMEFIFVSPKNKDKRVLVYA
# Columns and labels:
# Assay in all cases: glycan array binding signal (z-score within array); higher = stronger binding
# Settings in all cases: glycan notation: IUPAC condensed, linker removed
# [1] = target: Fuc(a1-2)[GalNAc(b1-3)]Gal
# Procedure, shortened: (§1)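 Negative Z-scores can be read as non-binding. The Z-score is calculated within each array and then averaged across arrays of one protein sequence at different concentrations or buffers and across linkers. Arrays, 3228 in all, were curated from the Consortium for Functional Glycomics database and kept only where the protein sequence was available.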
# Fuc(a1-3)GlcNAc = target: Fuc(a1-3)GlcNAc
# Procedure, shortened: as §1
# [2] = target: Fuc(a1-3)[Gal(b1-4)]Glc6S
# Procedure, shortened: as §1
# [3] = target: Fuc(a1-3)[Gal(b1-4)]GlcNAc
# Procedure, shortened: as §1
# [4] = target: Fuc(a1-3)[Gal(b1-4)]GlcNAc(b1-2)Man
# Procedure, shortened: as §1
# [5] = target: Fuc(a1-3)[Gal(b1-4)]GlcNAc(b1-2)Man(a1-3)[Fuc(a1-3)[Gal(b1-4)]GlcNAc(b1-2)Man(a1-6)]Man(b1-4)GlcNAc(b1-4)GlcNAc
# Procedure, shortened: as §1
# [6] = target: Fuc(a1-3)[Gal(b1-4)]GlcNAc(b1-2)Man(a1-3)[Fuc(a1-3)[Gal(b1-4)]GlcNAc(b1-2)Man(a1-6)]Man(b1-4)GlcNAc(b1-4)[Fuc(a1-6)]GlcNAc
# Procedure, shortened: as §1
# [7] = target: Fuc(a1-3)[Gal(b1-4)]GlcNAc(b1-3)Gal(b1-3)[Fuc(a1-4)]GlcNAc
# Procedure, shortened: as §1
# [8] = target: Fuc(a1-3)[Gal(b1-4)]GlcNAc(b1-3)Gal(b1-4)[Fuc(a1-3)]GlcNAc
# Procedure, shortened: as §1
# [9] = target: Fuc(a1-3)[Gal(b1-4)]GlcNAc(b1-3)Gal(b1-4)[Fuc(a1-3)]GlcNAc(b1-3)Gal(b1-4)[Fuc(a1-3)]GlcNAc
# Procedure, shortened: as §1
# [10] = target: Fuc(a1-3)[Gal(b1-4)]GlcNAc(b1-3)GalNAc
# Procedure, shortened: as §1
# [11] = target: Fuc(a1-3)[Gal(b1-4)]GlcNAc(b1-6)GalNAc
# Procedure, shortened: as §1
# [12] = target: Fuc(a1-3)[Gal(b1-4)]GlcNAc(b1-6)[Gal(b1-3)GlcNAc(b1-3)]Gal(b1-4)Glc
# Procedure, shortened: as §1
# [13] = target: Fuc(a1-3)[Gal(b1-4)]GlcNAc6S
# Procedure, shortened: as §1
# [14] = target: Fuc(a1-3)[Gal3S(b1-4)]Glc
# Procedure, shortened: as §1
# [15] = target: Fuc(a1-3)[Gal3S(b1-4)]GlcNAc
# Procedure, shortened: as §1
# [16] = target: Fuc(a1-3)[Gal3S(b1-4)]GlcNAc6S
# Procedure, shortened: as §1
# [17] = target: Fuc(a1-3)[GalNAc(b1-4)]GlcNAc
# Procedure, shortened: as §1
# [18] = target: Fuc(a1-3)[GalNAc(b1-4)]GlcNAc6S
# Procedure, shortened: as §1
# Fuc(a1-4)GlcNAc = target: Fuc(a1-4)GlcNAc
# Procedure, shortened: as §1
# Fuc(b1-3)GlcNAc = target: Fuc(b1-3)GlcNAc
# Procedure, shortened: as §1
# Gal(a1-2)Gal = target: Gal(a1-2)Gal
# Procedure, shortened: as §1
# Gal(a1-3)Gal = target: Gal(a1-3)Gal
# Procedure, shortened: as §1
# Gal(a1-3)Gal(b1-3)GlcNAc = target: Gal(a1-3)Gal(b1-3)GlcNAc
# Procedure, shortened: as §1
# [19] = target: Gal(a1-3)Gal(b1-3)GlcNAc(b1-2)Man
# Procedure, shortened: as §1
# [20] = target: Gal(a1-3)Gal(b1-3)GlcNAc(b1-2)Man(a1-3)[Gal(a1-3)Gal(b1-3)GlcNAc(b1-2)Man(a1-6)]Man(b1-4)GlcNAc(b1-4)GlcNAc
# Procedure, shortened: as §1
# [21] = target: Gal(a1-3)Gal(b1-3)GlcNAc(b1-3)GalNAc
# Procedure, shortened: as §1
# [22] = target: Gal(a1-3)Gal(b1-3)GlcNAc(b1-6)GalNAc
# Procedure, shortened: as §1
# [23] = target: Gal(a1-3)Gal(b1-3)[Fuc(a1-4)]GlcNAc(b1-2)Man(a1-3)[Gal(a1-3)Gal(b1-3)[Fuc(a1-4)]GlcNAc(b1-2)Man(a1-6)]Man(b1-4)GlcNAc(b1-4)GlcNAc
# Procedure, shortened: as §1
# Gal(a1-3)Gal(b1-4)Glc = target: Gal(a1-3)Gal(b1-4)Glc
# Procedure, shortened: as §1
# Gal(a1-3)Gal(b1-4)GlcNAc = target: Gal(a1-3)Gal(b1-4)GlcNAc
# Procedure, shortened: as §1
# [24] = target: Gal(a1-3)Gal(b1-4)GlcNAc(b1-2)Man
# Procedure, shortened: as §1
# [25] = target: Gal(a1-3)Gal(b1-4)GlcNAc(b1-2)Man(a1-3)[Gal(a1-3)Gal(b1-4)GlcNAc(b1-2)Man(a1-6)]Man(b1-4)GlcNAc(b1-4)GlcNAc
# Procedure, shortened: as §1
# [26] = target: Gal(a1-3)Gal(b1-4)GlcNAc(b1-3)GalNAc
# Procedure, shortened: as §1
# [27] = target: Gal(a1-3)Gal(b1-4)GlcNAc(b1-6)GalNAc
# Procedure, shortened: as §1
# [28] = target: Gal(a1-3)Gal(b1-4)[Fuc(a1-3)]GlcNAc
# Procedure, shortened: as §1
# [29] = target: Gal(a1-3)Gal(b1-4)[Fuc(a1-3)]GlcNAc(b1-2)Man(a1-3)[Gal(a1-3)Gal(b1-4)[Fuc(a1-3)]GlcNAc(b1-2)Man(a1-6)]Man(b1-4)GlcNAc(b1-4)GlcNAc
# Procedure, shortened: as §1
# Gal(a1-3)GalNAc = target: Gal(a1-3)GalNAc
# Procedure, shortened: as §1
# [30] = target: Gal(a1-3)[Gal(a1-4)]Gal(b1-4)GlcNAc
# Procedure, shortened: as §1
# [31] = target: Gal(a1-4)Gal(b1-3)GlcNAc(b1-2)Man(a1-3)[Gal(a1-4)Gal(b1-3)GlcNAc(b1-2)Man(a1-6)]Man(b1-4)GlcNAc(b1-4)GlcNAc
# Procedure, shortened: as §1
# Gal(a1-4)Gal(b1-4)Glc = target: Gal(a1-4)Gal(b1-4)Glc
# Procedure, shortened: as §1
# Gal(a1-4)Gal(b1-4)GlcNAc = target: Gal(a1-4)Gal(b1-4)GlcNAc
# Procedure, shortened: as §1
# [32] = target: Gal(a1-4)Gal(b1-4)GlcNAc(b1-2)Man(a1-3)[Gal(a1-4)Gal(b1-4)GlcNAc(b1-2)Man(a1-6)]Man(b1-4)GlcNAc(b1-4)GlcNAc
# Procedure, shortened: as §1
# [33] = target: Gal(a1-4)Gal(b1-4)GlcNAc(b1-3)Gal(b1-4)Glc
# Procedure, shortened: as §1
# Gal(a1-4)GlcNAc = target: Gal(a1-4)GlcNAc
# Procedure, shortened: as §1
binder,measurement,setting,value
B1,glycan array binding signal (z-score),[1],-0.291
same,glycan array binding signal (z-score),Fuc(a1-3)GlcNAc,-0.382
same,glycan array binding signal (z-score),[2],-0.309
same,glycan array binding signal (z-score),[3],-0.388
same,glycan array binding signal (z-score),[4],-0.467
same,glycan array binding signal (z-score),[5],-0.365
same,glycan array binding signal (z-score),[6],-0.358
same,glycan array binding signal (z-score),[7],-0.425
same,glycan array binding signal (z-score),[8],-0.404
same,glycan array binding signal (z-score),[9],-0.342
same,glycan array binding signal (z-score),[10],-0.385
same,glycan array binding signal (z-score),[11],-0.345
same,glycan array binding signal (z-score),[12],0.244
same,glycan array binding signal (z-score),[13],-0.324
same,glycan array binding signal (z-score),[14],-0.349
same,glycan array binding signal (z-score),[15],-0.367
same,glycan array binding signal (z-score),[16],-0.395
same,glycan array binding signal (z-score),[17],-0.244
same,glycan array binding signal (z-score),[18],0.103
same,glycan array binding signal (z-score),Fuc(a1-4)GlcNAc,-0.315
same,glycan array binding signal (z-score),Fuc(b1-3)GlcNAc,-0.334
same,glycan array binding signal (z-score),Gal(a1-2)Gal,0.752
same,glycan array binding signal (z-score),Gal(a1-3)Gal,1.29
same,glycan array binding signal (z-score),Gal(a1-3)Gal(b1-3)GlcNAc,1.03
same,glycan array binding signal (z-score),[19],2.38
same,glycan array binding signal (z-score),[20],0.398
same,glycan array binding signal (z-score),[21],1.15
same,glycan array binding signal (z-score),[22],1.22
same,glycan array binding signal (z-score),[23],0.178
same,glycan array binding signal (z-score),Gal(a1-3)Gal(b1-4)Glc,1.14
same,glycan array binding signal (z-score),Gal(a1-3)Gal(b1-4)GlcNAc,2.05
same,glycan array binding signal (z-score),[24],1.69
same,glycan array binding signal (z-score),[25],5.84
same,glycan array binding signal (z-score),[26],3.54
same,glycan array binding signal (z-score),[27],1.25
same,glycan array binding signal (z-score),[28],1.16
same,glycan array binding signal (z-score),[29],0.623
same,glycan array binding signal (z-score),Gal(a1-3)GalNAc,-0.193
same,glycan array binding signal (z-score),[30],3.32
same,glycan array binding signal (z-score),[31],4.07
same,glycan array binding signal (z-score),Gal(a1-4)Gal(b1-4)Glc,2.55
same,glycan array binding signal (z-score),Gal(a1-4)Gal(b1-4)GlcNAc,3.63
same,glycan array binding signal (z-score),[32],8.66
same,glycan array binding signal (z-score),[33],4.55
same,glycan array binding signal (z-score),Gal(a1-4)GlcNAc,0.842
